# Data published in PubChem BioAssay AID2675 (National Center for Advancing Translational Sciences (NCATS), 2010).
# The campaign covered roughly 280,000 compounds. About 100 (0.036%) were called active. The shares of active, inactive and inconclusive entries below differ from those in the screen. Calls come from the whole dose curve; as a rule, active = well fitted inhibition curve with a large enough effect in the signal ratio, with a control signal flat (not every such curve was filed as active); inconclusive = small, poorly fitted or top-dose-only effect, or effect the other way, or a change in a side signal; inactive = no such curve, though single readings can be large or run the other way; the % refers to the signal ratio. Where the call is inconclusive, the potency comes from a doubtful curve fit. “Side channel” marks fits to a control or component signal instead of the main read-out.
# Biological target: Muscleblind-like protein 1 (Homo sapiens) (UniProt Q9NR56)
# Sequence of UniProt Q9NR56 (Q9NR56 whole entry, looked up): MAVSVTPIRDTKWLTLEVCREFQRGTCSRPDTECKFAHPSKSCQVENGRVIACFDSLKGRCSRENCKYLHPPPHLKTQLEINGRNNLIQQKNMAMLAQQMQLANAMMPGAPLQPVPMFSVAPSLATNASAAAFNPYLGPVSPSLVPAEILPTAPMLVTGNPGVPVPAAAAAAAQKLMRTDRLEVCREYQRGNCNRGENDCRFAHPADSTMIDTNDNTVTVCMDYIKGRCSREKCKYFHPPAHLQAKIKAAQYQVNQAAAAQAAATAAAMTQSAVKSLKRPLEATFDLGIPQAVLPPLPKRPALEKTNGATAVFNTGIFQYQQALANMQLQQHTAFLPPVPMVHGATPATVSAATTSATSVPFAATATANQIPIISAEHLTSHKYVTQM
# Assay: qHTS Assay for Inhibitors of MBNL1-poly(CUG) RNA binding
# Details: TR-FRET MBNL1-His/biotin-(CUG)12 binding, 665/545 ratio; series mostly up to 57.5 µM
# Outline: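 TR-FRET readout: Ex 340 nm, 665/545 nm emission ratio, normalized to buffer-only (basal) and MBNL1-(CUG)12 controls. Complex of MBNL1-His with Biotin-(CUG)12, compounds 92 nM–58 uM, incubated 60 min at room temperature.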
# Potency is the fitted concentration of half-maximal effect; tags give direction and shape of the fitted curve or compound fluorescence and quenching.
row,Compound,Potency
1,BrC(/C=C\c1ccccc1)=N/Nc1nc(N2CCOCC2)nc(N2CCOCC2)n1,"inconclusive: 20 µM [quencher, side channel, single point]"
2,COCCn1c(=S)[nH]c2cc(C(=O)N3CCN(c4ccccc4OC)CC3)ccc2c1=O,inactive
3,CCOC(=O)c1sc(S(C)(=O)=O)c2c1CCc1conc1-2,"inconclusive: 20 µM [quencher, side channel, partial curve]"
4,CNC(=O)c1sc(-c2cccs2)nc1C,"inconclusive: 7.94 µM [quencher, side channel, full curve]"
5,COc1ccc(CCNC(=O)c2cc(-c3ccc(Cl)c(Cl)c3)oc2C)cc1,"inconclusive: 0.316 µM [fluorescent, side channel, partial curve]"
6,COc1cccc2sc3ccc(NCc4ccc5c(c4)OCO5)cc3c(=O)c12,"inconclusive: 14.1 µM [quencher, side channel, partial curve]"
7,CCN(CC)c1ccc2cc(C(N)=O)/c(=N\NC(=O)c3ccncc3)oc2c1,"inconclusive: 3.55 µM [quencher, side channel, full curve]"
8,N#CCCn1cc(/C=N/NC(N)=S)c(-c2ccccc2)n1,inactive
9,COc1cccc(NC(=O)c2ccc(NCCCN3CCC(C)CC3)c([N+](=O)[O-])c2)c1,"inconclusive: 14.1 µM [quencher, partial curve]"
10,CC(C)(C)CC(C)(C)N=C1NS(=O)(=O)c2cc([N+](=O)[O-])ccc21,"inconclusive: 11.2 µM [quencher, side channel, partial curve]"
11,CC1CCCC/C1=N/Nc1ccc([N+](=O)[O-])cc1[N+](=O)[O-] (stereo not given),"inconclusive: 8.91 µM [quencher, side channel, partial curve]"
12,NC1=NC(=Nc2ccc(Cl)cc2)c2ccccc21,"inconclusive: 39.8 µM [quencher, single point]"
13,Cc1ccc(OCC(=O)Nc2cc(C)on2)c([N+](=O)[O-])n1,"inconclusive: 17.8 µM [quencher, side channel, partial curve]"
14,O=[N+]([O-])c1cc([N+](=O)[O-])c(N2CCCCCC2)cc1NCCO,"inconclusive: 11.2 µM [quencher, side channel, partial curve]"
15,CCOC(=O)Nc1ccc2c(c1)N(C(=O)N1CCN(C)CC1)c1ccccc1S2,"inconclusive: 3.55 µM [quencher, side channel, full curve]"
16,C/C(=N\NC(=O)c1c(C)nc2ccccn12)c1cccc([N+](=O)[O-])c1,"inconclusive: 17.8 µM [quencher, side channel, partial curve]"
17,COc1ccc2c(C)nc(Nc3nc(-c4ccccc4)cc(=O)[nH]3)nc2c1,inactive
18,C=CCOc1nc2c(c(=O)n(C)c(=O)n2C)n1Cc1ccc(Cl)cc1,"inconclusive: 0.0708 µM [fluorescent, side channel, full curve]"
19,O=C(O)c1ccc(NCc2cccnc2)c([N+](=O)[O-])c1,"inconclusive: 12.6 µM [quencher, side channel, partial curve]"
20,COc1ccc(N2CCN(C(=O)c3cc([N+](=O)[O-])ccc3N3CCN(CCO)CC3)CC2)cc1,"inconclusive: 31.6 µM [quencher, side channel, partial curve]"

row,Compound,Potency
1,Cc1ccc(C)c(Nc2c(F)c(F)c(F)c(F)c2C(=O)O)c1,"inconclusive: 158 µM [inhibitor, partial curve]"
2,O=[N+]([O-])c1cccc2c(S(=O)(=O)N3CCOCC3)cccc12,"inconclusive: 17.8 µM [quencher, side channel, partial curve]"
3,COc1cc2[nH]c(=O)c(C(=O)NCCCN3CCCCC3)c(O)c2cc1OC,inactive
4,COc1ccc(NC(=O)CN2c3cccc4cccc(c34)S2(=O)=O)c(OC)c1,"inconclusive: 14.1 µM [quencher, side channel, partial curve]"
5,O=C(Nc1ccccc1Cl)c1ccc2nccnc2c1,"inconclusive: 14.1 µM [quencher, partial curve]"
6,O=[N+]([O-])c1ccc(Sc2cccc3cccnc23)c2cccnc12,"inconclusive: 0.708 µM [quencher, side channel, full curve, poor fit]"
7,Cc1ccc(OCC(=O)N/N=C/c2ccncc2)cc1C,"inconclusive: 20 µM [quencher, side channel, single point]"
8,Cc1[nH]c2ccccc2c1-c1nc2ccccc2[nH]c1=O,"inconclusive: 28.2 µM [quencher, side channel, single point]"
9,Cc1c(C(=O)N(C)C)sc(NC(=O)c2cc([N+](=O)[O-])cc([N+](=O)[O-])c2)c1C#N,"inconclusive: 10 µM [quencher, side channel, partial curve]"
10,CN1C(=O)C(O)(CC(=O)/C=C/C=C/c2ccccc2)c2ccccc21 (stereo not given),"inconclusive: 12.6 µM [quencher, side channel, partial curve]"
11,NC(=O)c1nsc(C(=O)N(c2ccc(F)cc2)C(C(=O)NCC2CCCO2)c2ccc3ncccc3c2)c1N (stereo not given),"inconclusive: 14.1 µM [quencher, side channel, single point]"
12,COc1cccc(/C=C2/SC(=S)N(CC(=O)NNC(=O)c3ccccc3O)C2=O)c1,"inconclusive: 28.2 µM [quencher, side channel, single point]"
13,Cc1ccc(NC(=O)c2cc(-c3ccccc3O)n[nH]2)cc1Cl,inactive
14,O=C(CCc1nc2ccccc2s1)NCc1ccccc1F,inactive
15,COc1ccc2nc(C)cc(N/N=C/c3cccc(OC)c3O)c2c1,"inconclusive: 12.6 µM [quencher, side channel, partial curve]"
16,Cc1cc(C)nc(SSc2nc(C)cc(C)n2)n1,inactive
17,COc1cc(C(=O)N/N=C(\C)c2ccccn2)cc(OC)c1OC,inactive
18,O=C(NCc1ccccn1)c1cc2ccccc2oc1=O,"inconclusive: 15.8 µM [quencher, side channel, partial curve]"
19,C=CCn1c2ccccc2c2nnc(SCC(N)=O)nc21,"inconclusive: 15.8 µM [quencher, side channel, partial curve]"
20,O=C(CSc1ccc(Cl)cc1)Nc1nnc(-c2cccc([N+](=O)[O-])c2)s1,"inconclusive: 28.2 µM [quencher, single point]"

row,Compound,Potency
1,COc1ccc(/C=C2/Sc3ccc(C(=O)NCCCN4CCOCC4)cc3NC2=O)cc1OC,"inconclusive: 14.1 µM [quencher, side channel, partial curve]"
2,Cc1cc(=O)[nH]c(SCC(=O)Nc2ccc3c(c2)OCCO3)n1,inactive
3,N#CC1=C2C=Cc3ccccc3N2CCCC1=O,"inconclusive: 17.8 µM [quencher, side channel, partial curve]"
4,CC(/C=C1\SC(=S)N(CCCC(=O)Nc2ccc(C(=O)O)c(O)c2)C1=O)=C\c1ccccc1,"inconclusive: 39.8 µM [quencher, side channel, partial curve]"
5,CCOc1ccc(N2C(=O)CS/C2=C(\C(Cl)=C(Cl)Cl)[N+](=O)[O-])cc1,"inconclusive: 35.5 µM [quencher, side channel, single point]"
6,CC(O)C(NS(=O)(=O)c1ccc(Cl)cc1)C(=O)OCc1cc([N+](=O)[O-])cc2c1OCOC2 (stereo not given),"inconclusive: 20 µM [quencher, side channel, partial curve]"
7,CCOC(=O)Cc1csc(NC(=O)CCN2C(=O)c3cccc([N+](=O)[O-])c3C2=O)n1,"inconclusive: 7.08 µM [quencher, side channel, partial curve]"
8,COc1ccc(-n2c(O)c(/C=N/NS(=O)(=O)c3cc(C)ccc3C)c3ccccc3c2=O)cc1OC,"inconclusive: 31.6 µM [quencher, side channel, single point]"
9,O=C(Nc1ccc2c(c1)OCCO2)C1CCCN(S(=O)(=O)c2cccs2)C1 (stereo not given),inactive
10,Nc1c(-c2ccccc2)nc(Cl)nc1-c1ccccc1,"inconclusive: 14.1 µM [quencher, side channel, partial curve]"
11,O=[N+]([O-])c1cccc(-c2nc(Oc3ccc(Cl)cc3)c3ccccc3n2)c1,"inconclusive: 39.8 µM [quencher, single point]"
12,CCOCC(=O)N1CCN(c2ccc([N+](=O)[O-])cc2)CC1,"inconclusive: 5.62 µM [quencher, side channel, partial curve]"
13,Cn1nc([N+](=O)[O-])nc1Sc1ccc(C(C)(C)C)cc1,"inconclusive: 11.2 µM [quencher, side channel, partial curve]"
14,CN1c2ccsc2/C(=N/Nc2ccc(F)cc2)CS1(=O)=O,"inconclusive: 39.8 µM [quencher, side channel, single point]"
15,COCCNc1ccc(-c2n[nH]c(=O)c3ccccc23)cc1[N+](=O)[O-],"inconclusive: 0.794 µM [quencher, full curve]"
16,O=C(Cn1ncc2c([nH]c3ccccc32)c1=O)NCC1CCN(Cc2ccc(F)cc2)CC1,inactive
17,O=C1/C(=C/C=C/c2ccco2)SC(=S)N1c1ccc(O)cc1,inactive
18,COc1ccc(Cc2c(O)nc(SCC(=O)c3ccc(OC)cc3)[nH]c2=O)cc1,inactive
19,CSc1cccc(CN2CCCC(CNC(=O)c3ccc(F)cc3)C2)c1 (stereo not given),inactive
20,Cn1cc([N+](=O)[O-])c(C(=O)Nc2sc3c(c2C#N)CCC3)n1,"inconclusive: 12.6 µM [quencher, side channel, partial curve]"
